Consider three sequences from the supplement of paper PMC10126150.

Values marked as one replicate rest on one cluster of the flow cell; about a third of the high ones do not repeat.

For data set [1], the system named is ATP. Kind of data set: switch fluorescence ratio, 500 uM ATP over buffer (Cy3 cluster intensity, sum of 5 cycles each) (fold (ratio)); higher = stronger signal-on switching upon ATP binding. Particulars: aptamer strand: ATP DNA aptamer (quencher-CACCTGGGGGAGTATTGCGGAGGAAGG + anchor), 100 nM annealed; ATP concentration: 500 uM; one replicate. In short, it runs like this:
(§1)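 After annealing to 100 nM quencher-labelled ATP aptamer, Cy3-labelled switching-strand clusters on a modified Illumina MiSeq flow-cell were imaged in selection buffer. A second image followed after 15 min with 500 uM ATP at 22 °C, and five such buffer/ATP cycles were done, each separated by NaOH stripping and re-annealing. The fluorescence ratio, averaged per switch-domain sequence, is summed target-cycle over summed buffer-cycle Cy3 intensity per cluster, with clusters outside 100-1000 RFU excluded.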

The test system of data set [2] is ATP. Put plainly: switch fluorescence ratio, 500 uM ATP over buffer (Cy3 cluster intensity, sum of 5 cycles each) (fold (ratio)); higher = stronger signal-on switching upon ATP binding; sequences stand for … in TCGTCGGCAGCGTCAGATGTGTATAAGAGACAGTTTTTTTTTTTTTTTTTTTTTTTTT…TC. The following applies: aptamer strand: ATP DNA aptamer (quencher-CACCTGGGGGAGTATTGCGGAGGAAGG + anchor), 100 nM annealed; ATP concentration: 500 uM; one replicate. In short, it runs like this: as §1
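Also: ATP exposure 15 min at 22 °C before imaging.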

For the sequence “TCGTCGGCAGCGTCAGATGTGTATAAGAGACAGTTTTTTTTTTTTTTTTTTTTTTTTTCCCTC”, the switch fluorescence ratio in data set [1] was 0.984.
Regarding GCAGCCAGGT, the switch fluorescence ratio in data set [2] amounted to 1.57.
Still for that read-out and setting: the figure for GAGTTGCTAA is 0.97.
